# Reference: PMC4336329 (PLoS ONE, 2015)
# The whole screen tested about 310,000 compounds, of which about 2,200 (0.71%) showed an effect of 50% or more. Effects have a minus sign here. The list shows a part of the results.
# Target: human ether-à-go-go-related gene (hERG) potassium channel (human, UniProt Q12809)
# Assay: primary screen, population patch clamp on CHO cells stably expressing hERG
# Chain of human ether-à-go-go-related gene (hERG) potassium channel (Q12809 whole entry, looked up): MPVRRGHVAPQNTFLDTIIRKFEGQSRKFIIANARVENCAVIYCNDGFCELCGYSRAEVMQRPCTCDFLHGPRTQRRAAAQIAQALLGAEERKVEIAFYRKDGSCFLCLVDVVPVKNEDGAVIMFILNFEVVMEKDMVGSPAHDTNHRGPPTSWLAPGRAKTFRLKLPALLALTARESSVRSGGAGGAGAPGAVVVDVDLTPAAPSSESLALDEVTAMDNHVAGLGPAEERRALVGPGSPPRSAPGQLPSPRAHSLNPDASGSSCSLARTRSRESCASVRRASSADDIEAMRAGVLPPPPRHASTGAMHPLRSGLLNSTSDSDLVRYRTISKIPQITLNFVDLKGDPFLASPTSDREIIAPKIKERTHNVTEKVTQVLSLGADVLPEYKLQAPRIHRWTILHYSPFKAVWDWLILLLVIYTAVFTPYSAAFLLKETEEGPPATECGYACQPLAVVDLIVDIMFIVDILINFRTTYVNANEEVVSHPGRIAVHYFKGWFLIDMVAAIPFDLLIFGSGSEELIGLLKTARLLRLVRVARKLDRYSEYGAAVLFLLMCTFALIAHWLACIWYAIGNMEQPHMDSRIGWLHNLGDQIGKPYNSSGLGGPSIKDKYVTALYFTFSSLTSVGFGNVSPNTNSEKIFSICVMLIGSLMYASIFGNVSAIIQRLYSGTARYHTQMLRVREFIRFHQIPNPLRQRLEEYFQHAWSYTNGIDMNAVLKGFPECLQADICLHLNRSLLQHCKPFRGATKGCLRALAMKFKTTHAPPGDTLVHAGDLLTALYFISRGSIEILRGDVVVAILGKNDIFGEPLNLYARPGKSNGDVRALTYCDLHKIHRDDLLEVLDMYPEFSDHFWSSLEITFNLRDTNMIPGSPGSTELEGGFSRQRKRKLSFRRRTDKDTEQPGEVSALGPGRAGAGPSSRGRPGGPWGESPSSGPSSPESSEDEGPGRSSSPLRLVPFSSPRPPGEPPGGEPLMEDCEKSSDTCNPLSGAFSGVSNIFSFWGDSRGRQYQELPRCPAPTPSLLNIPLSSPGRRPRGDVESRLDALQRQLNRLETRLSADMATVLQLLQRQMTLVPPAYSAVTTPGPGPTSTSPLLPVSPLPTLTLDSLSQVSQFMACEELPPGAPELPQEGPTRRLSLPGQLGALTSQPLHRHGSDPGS
row,Structure (SMILES),"hERG current change (%, negative = inhibition) at 1uM"
1,CCOc1ccc(NC(=S)NC(=O)C2CCCC2)cc1,14.5%
2,Cc1ccc(C(=O)C2=C(O)C(=O)N(CCCN(C)C)C23C(=O)N(C)c2ccccc23)o1 (stereo not drawn),10.8%
3,COc1ccc(OCC(=O)N(Cc2cccs2)C2CCS(=O)(=O)C2)cc1 (stereo not drawn),13.7%
4,Cc1ccc(S(=O)(=O)NCCC(=O)Nc2nccs2)cc1,9.38%
5,COC(=O)c1ccc(COc2ccccc2/C=C(\C#N)C(=O)Nc2ccc(C)cc2)cc1,9.46%
6,Cc1cc(C(=O)NC2CCCc3c2cnn3-c2ccc(C)c(C)c2)n(C)n1 (stereo not drawn),12.3%
7,Cn1c2ccccc2c2nn(-c3ccccc3)c(=O)cc21,0.761%
8,O=C(COC(=O)Cn1cnc2ccccc21)NCCc1ccc(Cl)cc1,-2.42%
9,CN1CCN(C(=O)c2cnn(-c3ccccc3)c2NC(=O)c2ccccc2)CC1,10.4%
10,Cc1nn(CC(=O)OCC(=O)c2ccc(OC(F)F)cc2)c(C)c1[N+](=O)[O-],-0.897%
11,Cc1ccc(C(C)C)c(OCC(=O)NN=C2CCCC2)c1,18.2%
12,NNc1nc(-c2ccccc2)nc2sc3c(c12)CCCC3,14.5%
13,Cc1ccc2nc(CNC(=O)C3CCC(=O)N(Cc4ccccc4F)C3)cn2c1 (stereo not drawn),5.18%
14,CCn1cc(C(=O)N2CCCCC2)c2ccccc21,12.9%
15,COc1ccc(CCNC(=O)COC(=O)c2ccc(N3CCCC3=O)cc2)cc1OC,13.2%
16,O=S(=O)(c1cccc(C(F)(F)F)c1)N1CCC(c2nc3ccccc3[nH]2)CC1,7.11%
17,NC(=O)c1ccc(NC(=O)COC(=O)CCN=C2NS(=O)(=O)c3ccccc32)cc1,11.1%
18,Cc1ccc(N(C)C(=O)CCNC(=O)Cn2cnc3ccccc3c2=O)cc1C,10.1%
19,CN(C)c1nc(N)c([N+](=O)[O-])c(NCC2CCCO2)n1 (stereo not drawn),14.3%
20,CCOc1ccc(C(=O)NC2CCN(S(C)(=O)=O)CC2)cc1,4.53%
21,CCOC(=O)c1sc(SCc2ccccc2)c2c1CC(C)(C)CC2=O,8.46%
22,Cc1cc(C)n2ncc(C(=O)O)c2n1,6.38%
23,COc1ccc(CCNC(=O)CSc2nc(C)nc3c2c(=O)n(C)c(=O)n3C)cc1OC,11%

row,Structure (SMILES),"hERG current change (%, negative = inhibition) at 1uM"
1,CC1CN(C(=S)Nc2ccc(S(N)(=O)=O)cc2)CC(C)O1 (stereo not drawn),5.9%
2,O=C(Cc1ccc(-n2c(=O)c3sccc3n(CC(=O)Nc3ccccc3F)c2=O)cc1)NCc1ccco1,13%
3,COc1ccc2c(c1)c(C(=O)C(C)N1CCCCC1)c(C)n2C (stereo not drawn),16.9%
4,COc1cc(NCCC(=O)c2cccs2)c(OC)cc1Cl,1.26%
5,O=S(=O)(/C=C/c1ccccc1)N1CCN(c2ccc(F)cc2)CC1,-4.09%
6,Cc1cccc(N(CC(=O)NC2CC3CCC2C3)S(=O)(=O)c2ccccc2)c1 (stereo not drawn),6.83%
7,CC1CN(S(=O)(=O)c2cccc(C(=O)Nc3ccc4c(c3)CCC4)c2)CC(C)O1 (stereo not drawn),1.39%
8,CC(=O)CC1(C)OC(N)=C(C#N)C1(C#N)C#N (stereo not drawn),6.55%
9,Cn1c2ccccc2c2cnn(CC(=O)N3CCCCC3)c(=O)c21,1.33%
10,N#CCCn1cc(C(=O)CN2C(=O)NC3(CCCCCC3)C2=O)c2ccccc21,8.94%
11,C/C(=N\NC(N)=O)C1CC(CC(C)C)C(=O)O1 (stereo not drawn),11.8%
12,CC(=O)Nc1ccc(S(=O)(=O)Nc2cc(-c3ccccc3)nn2C)cc1,16.2%
13,COc1ccc(CNC(=O)Cn2nnc3ccccc3c2=O)cc1,13%
14,CCOC(CCNC(=O)CCC(=O)Nc1ccc2nc(N3CCN(C)CC3)cc(C)c2c1)OCC,18.8%
15,COc1ccccc1-n1cc(-c2ccccc2)c2c(=S)nc[nH]c21,11.8%
16,COc1ccc(S(=O)(=O)N2CCC(C(=O)N[C@@H](C)C(=O)N3CCCCCC3)CC2)cc1,-5.24%
17,CCOC(=O)c1cnc(-c2ccccc2)nc1Oc1ccc(C)cc1,17.1%
18,O=c1cc(C(F)(F)F)[nH]c(=O)n1C1CCCCC1,-2.27%
19,COCc1[nH][nH]c(=O)c1C=Nc1ccc(F)cc1F,1.77%
20,Cc1occc1C(=O)NCCCCc1ccccc1,13.3%
21,COC(=O)c1c(C)[nH]c(C(=O)C(C)OC(=O)c2cnc(C)cn2)c1C (stereo not drawn),12.2%
22,COCCN(Cc1ccccc1)C(=O)c1cccc(S(=O)(=O)N2CCCc3ccccc32)c1,2.23%
